To fix the notation:
B1: GPR68, Q15743 (parent)
chain: MGNITADNSSMSCTIDHTIHQTLAPVVYVTVLVVGFPANCLSLYFGYLQIKARNELGVYLCNLTVADLFYICSLPFWLQYVLQHDNWSHGDLSCQVCGILLYENIYISVGFLCCISVDRYLAVAHPFRFHQFRTLKAAVGVSVVIWAKELLTSIYFLMHEEVIEDENQHRVCFEHYPIQAWQRAINYYRFLVGFLFPICLLLASYQGILRAVRRSHGTQKSRKDQIQRLVLSTVVIFLACFLPYHVLLLVRSVWEASCDFAKGVFNAYHFSLLLTSFNCVADPVLYCFVSETTHRDLARLRGACLAFLTCSRTGRAREAYPLGAPEASGKSGAQGEEPELLTKLHPAFQTPNSPGSGGFPTGRLA

Scores whose standard error is large were omitted. Two further conditions of the source, in which the scores hardly spread, are not listed. In variant names, del marks residues removed and ins residues inserted between the two positions. For part of these data: The concentration of ogerin is not given here.

The variants in data set [1] derive from B1. Briefly: cAMP reporter score (Enrich2 score, wild type = 0); higher = more signal; HEK293T, FACS bins.
Data set [2] covers variants of B1. Briefly: surface expression score (Enrich2 score, wild type = 0); higher = more signal; HEK293T, FACS bins.

Turning to D7_N8insGSG, the cAMP reporter score in data set [1] (pH 5.5) was determined as 2.28; in data set [1] (pH 6), 0.957; in data set [1] (pH 6, modulator: ogerin), 1.75; in data set [1] (pH 6.5, modulator: ogerin), 1.5. Also, in data set [2], the surface expression score turned out to be 1.44.

With I4_T5del, the cAMP reporter score is 0.444 in data set [1] (pH 5.5); -0.137 in data set [1] (pH 6, modulator: ogerin); 0.046 in data set [1] (pH 6.5, modulator: ogerin). Also, the surface expression score in data set [2] was -0.657.

Regarding T5_A6del, the cAMP reporter score in data set [1] (pH 5.5) was 0.148; in data set [1] (pH 6) it was -0.397; in data set [1] (pH 6, modulator: ogerin) it was 0.288; in data set [1] (pH 6.5, modulator: ogerin), -0.437. Moreover, the surface expression score in data set [2] was -0.495.

For the variant N8_S10del, the cAMP reporter score in data set [1] (pH 5.5) was 0.553; in data set [1] (pH 6), 0.088; in data set [1] (pH 6, modulator: ogerin), 0.941; in data set [1] (pH 6.5, modulator: ogerin) it was -0.225.

Consider I4_A6del, for which the cAMP reporter score is 0.103 in data set [1] (pH 5.5); -0.235 in data set [1] (pH 6); 0.068 in data set [1] (pH 6, modulator: ogerin); -0.058 in data set [1] (pH 6.5, modulator: ogerin). In addition, in data set [2], the surface expression score was -0.682.

As to M11del, the cAMP reporter score came to 0.264 in data set [1] (pH 5.5); 0.542 in data set [1] (pH 6); 0.336 in data set [1] (pH 6, modulator: ogerin); 0.253 in data set [1] (pH 6.5, modulator: ogerin). For the same variant, the surface expression score in data set [2] is 0.031.

In the case of S10_M11del, the cAMP reporter score in data set [1] (pH 5.5) was 0.385; in data set [1] (pH 6) it was -0.046; in data set [1] (pH 6, modulator: ogerin), 0.489; in data set [1] (pH 6.5, modulator: ogerin), 0.595. Also, in data set [2], the surface expression score came out at 0.487.

Consider D7_N8del, for which the cAMP reporter score in data set [1] (pH 5.5) is -0.204; in data set [1] (pH 6), -0.534; in data set [1] (pH 6, modulator: ogerin), -0.074; in data set [1] (pH 6.5, modulator: ogerin), -0.813. Also, the surface expression score in data set [2] is -0.335.

Turning to T5_D7del, the cAMP reporter score in data set [1] (pH 5.5) was -0.635; in data set [1] (pH 6), -0.869; in data set [1] (pH 6, modulator: ogerin), -0.395; in data set [1] (pH 6.5, modulator: ogerin), -1.27. Further, the surface expression score in data set [2] is -1.11.

Take N3_I4insGSG: the cAMP reporter score in data set [1] (pH 5.5) was 0.252; in data set [1] (pH 6), 0.112; in data set [1] (pH 6, modulator: ogerin) it was 0.889; in data set [1] (pH 6.5, modulator: ogerin) it was -0.041. The surface expression score in data set [2] is 0.836.

For the variant A6_D7insGSG, the cAMP reporter score in data set [1] (pH 5.5) came to 0.021; in data set [1] (pH 6), 0.503; in data set [1] (pH 6, modulator: ogerin), 0.056; in data set [1] (pH 6.5, modulator: ogerin), 0.81. The surface expression score in data set [2] is 0.336.

For N8_S9insGSG, the cAMP reporter score was -0.436 in data set [1] (pH 5.5); -0.233 in data set [1] (pH 6); -0.457 in data set [1] (pH 6, modulator: ogerin); -0.428 in data set [1] (pH 6.5, modulator: ogerin). In addition, the surface expression score in data set [2] was -0.266.

With D7V, the cAMP reporter score is 0.826 in data set [1] (pH 5.5); 1.53 in data set [1] (pH 6); 0.862 in data set [1] (pH 6, modulator: ogerin); 1.95 in data set [1] (pH 6.5, modulator: ogerin). Besides, the surface expression score in data set [2] worked out at 0.204.

Regarding D7H, the cAMP reporter score in data set [1] (pH 5.5) is 0.569; in data set [1] (pH 6) it was 0.105; in data set [1] (pH 6, modulator: ogerin), -0.059; in data set [1] (pH 6.5, modulator: ogerin), 0.745. Also, the surface expression score in data set [2] is -0.478.

With D7T, the cAMP reporter score in data set [1] (pH 5.5) is 0.995; in data set [1] (pH 6), 2.68; in data set [1] (pH 6, modulator: ogerin), 1.91; in data set [1] (pH 6.5, modulator: ogerin), 2.49. The surface expression score in data set [2] came out at 1.89.

Consider D7W, for which the cAMP reporter score in data set [1] (pH 5.5) came out at 0.253; in data set [1] (pH 6) it was 0.23; in data set [1] (pH 6, modulator: ogerin), 0.143; in data set [1] (pH 6.5, modulator: ogerin) it was 0.188. For the same variant, the surface expression score in data set [2] was 0.339.

As to D7P, the cAMP reporter score is 0.986 in data set [1] (pH 5.5); 1.2 in data set [1] (pH 6, modulator: ogerin); 1.14 in data set [1] (pH 6.5, modulator: ogerin). In data set [2], the surface expression score is 0.934.

For D7C, the cAMP reporter score in data set [1] (pH 5.5) is -0.008; in data set [1] (pH 6), -0.546; in data set [1] (pH 6, modulator: ogerin) it was -0.017; in data set [1] (pH 6.5, modulator: ogerin) it was -0.029. Also, in data set [2], the surface expression score was -0.916.

Take D7N: the cAMP reporter score was -0.461 in data set [1] (pH 5.5); 0.313 in data set [1] (pH 6); -0.591 in data set [1] (pH 6, modulator: ogerin); -0.347 in data set [1] (pH 6.5, modulator: ogerin). In data set [2], the surface expression score is -0.427.

D7I: the cAMP reporter score in data set [1] (pH 5.5) is 0.16; in data set [1] (pH 6), 1.22; in data set [1] (pH 6, modulator: ogerin), 0.125; in data set [1] (pH 6.5, modulator: ogerin), 0.782. Further, in data set [2], the surface expression score is -0.381.

With D7F, the cAMP reporter score in data set [1] (pH 5.5) amounted to 0.834; in data set [1] (pH 6) it was 1.29; in data set [1] (pH 6, modulator: ogerin), 0.742; in data set [1] (pH 6.5, modulator: ogerin), 0.355. Also, the surface expression score in data set [2] was -0.303.

Take D7S: the cAMP reporter score stood at 0.697 in data set [1] (pH 5.5); 0.322 in data set [1] (pH 6); 0.075 in data set [1] (pH 6, modulator: ogerin); 0.238 in data set [1] (pH 6.5, modulator: ogerin). Moreover, the surface expression score in data set [2] was -0.012.

Consider D7G, for which the cAMP reporter score was 0.617 in data set [1] (pH 5.5); 0.304 in data set [1] (pH 6); 0.649 in data set [1] (pH 6, modulator: ogerin); 0.412 in data set [1] (pH 6.5, modulator: ogerin). In data set [2], the surface expression score was 0.025.

For D7Y, the cAMP reporter score in data set [1] (pH 5.5) stood at 0.219; in data set [1] (pH 6) it was 0.856; in data set [1] (pH 6, modulator: ogerin) it was 0.426; in data set [1] (pH 6.5, modulator: ogerin) it was 0.523. In data set [2], the surface expression score was found to be 0.213.

For D7L, the cAMP reporter score is -0.63 in data set [1] (pH 5.5); 0.111 in data set [1] (pH 6); -0.39 in data set [1] (pH 6, modulator: ogerin); 0.252 in data set [1] (pH 6.5, modulator: ogerin). Further, the surface expression score in data set [2] was -0.564.

Turning to D7E, the cAMP reporter score in data set [1] (pH 5.5) was -0.496; in data set [1] (pH 6), -0.391; in data set [1] (pH 6, modulator: ogerin), -0.744; in data set [1] (pH 6.5, modulator: ogerin), -0.705. In addition, the surface expression score in data set [2] is -1.38.

For D7R, the cAMP reporter score in data set [1] (pH 5.5) is 0.833; in data set [1] (pH 6), -0.486; in data set [1] (pH 6, modulator: ogerin) it was 1.38; in data set [1] (pH 6.5, modulator: ogerin), 2.47. In data set [2], the surface expression score came to 0.082.

D7M: the cAMP reporter score in data set [1] (pH 5.5) was 1.49; in data set [1] (pH 6), 1.05; in data set [1] (pH 6, modulator: ogerin) it was 1.34; in data set [1] (pH 6.5, modulator: ogerin), 0.677. In addition, in data set [2], the surface expression score was determined as 0.278.

For the variant D7A, the cAMP reporter score was determined as 0.392 in data set [1] (pH 5.5); 1.86 in data set [1] (pH 6); 1.42 in data set [1] (pH 6, modulator: ogerin); 0.816 in data set [1] (pH 6.5, modulator: ogerin). Also, the surface expression score in data set [2] amounted to 0.27.

With D7Q, the cAMP reporter score in data set [1] (pH 5.5) stood at 2.21; in data set [1] (pH 6, modulator: ogerin) it was 2.44; in data set [1] (pH 6.5, modulator: ogerin) it was 2.45.

In the case of T5_A6insGS, the cAMP reporter score is -0.408 in data set [1] (pH 5.5); 0.061 in data set [1] (pH 6); -0.463 in data set [1] (pH 6, modulator: ogerin); -0.251 in data set [1] (pH 6.5, modulator: ogerin). Also, the surface expression score in data set [2] is -0.812.

(Values after the GPR68 mutational scans of Howard et al. (2025).)
